Measured values as given in PubChem BioAssay AID485294 (National Center for Advancing Translational Sciences (NCATS), 2010).
In all, about 370,000 compounds went through this assay and about 150 (0.041%) were called active. Inconclusive means that the source gave no clear call. Such entries were picked first, then a sample of the others. Calls follow the shape of the dose curve; as a rule, active = well fitted inhibition curve with a large enough effect; inconclusive = small, poorly fitted or top-dose-only effect; inactive = flat fitted curve, though single readings scatter. No potency is given beside an inconclusive call; the fits are too rough.

Target: Beta-lactamase (Escherichia coli (strain K12)) (UniProt P00811)
Chain of UniProt P00811 (P00811 whole entry, looked up): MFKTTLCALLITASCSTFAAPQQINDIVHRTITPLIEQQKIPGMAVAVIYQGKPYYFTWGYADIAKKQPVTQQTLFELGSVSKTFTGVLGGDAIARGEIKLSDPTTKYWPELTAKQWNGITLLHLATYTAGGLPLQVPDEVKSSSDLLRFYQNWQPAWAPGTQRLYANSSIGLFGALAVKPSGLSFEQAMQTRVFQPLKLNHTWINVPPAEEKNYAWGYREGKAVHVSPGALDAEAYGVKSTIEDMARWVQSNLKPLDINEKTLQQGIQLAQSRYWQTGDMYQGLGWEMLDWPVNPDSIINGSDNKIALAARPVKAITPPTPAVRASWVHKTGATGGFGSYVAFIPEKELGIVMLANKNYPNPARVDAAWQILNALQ
Assay: qHTS Inhibitors of AmpC Beta-Lactamase (assay with detergent); also: nearly all actives have a fitted effect of over 25% in size;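 as to activity change, negative = inhibition: 0% = no-compound wells and -100% = no-enzyme wells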
Conditions: AmpC hydrolysis of nitrocefin, absorbance 480 nm, 0.01% Triton; activity change, negative = inhibition: at 114 µM (top of the series)
Summary of the method: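 AmpC (5.3 nM in the dispensed reagent) in 20 mM phosphate pH 7.0 with 0.01% (detergent screen) or 0.0001% Triton X-100 was preincubated with compounds for 15 min at room temperature. Nitrocefin was then added from an 800 uM solution, and hydrolysis was followed at 480 nm.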
Potency is read from the fitted curve at half-maximal effect; tags tell the direction and shape of the fitted curve.

Question: How did the “activity change, negative = inhibition” value turn out when `CC(=O)N1CCN(CC(=O)Nc2ccc([N+](=O)[O-])cc2Br)CC1` was run?
Answer: inactive: 1.04%

Question: For `Cn1c(C(=O)N2CCN(c3ncccn3)CC2)cc2c(=O)n(C)c3ccccc3c21`, which Potency is on record?
Answer: inconclusive [inhibitor, full curve, poor fit]

Question: `CCCSCCCNC(=O)Cn1c(-c2cccs2)cc2ccccc21` was tested. Which “activity change, negative = inhibition” value did it give?
Answer: inactive: -3.59%

Question: Which Potency does the source give for `COc1ccc(-n2c3c(cc(C(=O)NC4CCSC4=O)c2=O)C(=O)CC(C)(C)C3)cc1` (stereo not drawn) here?
Answer: inconclusive [inhibitor, full curve, poor fit]

Question: How did the Potency turn out when `CCc1nnc2sc(-c3cc(-c4ccccc4)nc4ccccc34)nn12` was run?
Answer: inconclusive [inhibitor, single point]

Question: For `CCCn1c(SC(C)C(=O)N2CCOCC2)nc2ccc(Br)cc2c1=O` (stereo not drawn), which Potency is on record?
Answer: inconclusive [inhibitor, full curve, poor fit]

Question: `O=C(Nc1c2c(nn1-c1ccc(Cl)cc1)CS(=O)(=O)C2)c1ccc(Br)cc1` was tested. Which “activity change, negative = inhibition” value did it give?
Answer: inactive: 4.12%

Question: Which “activity change, negative = inhibition” value does the source give for `COC(=O)CNC(=O)COC(=O)/C=C/c1cccs1` here?
Answer: inactive: -7.15%

Question: How did the Potency turn out when `CC(C)CCNC(=O)c1cccc(Cl)c1` was run?
Answer: inconclusive [inhibitor, full curve]

Question: Which “activity change, negative = inhibition” value does the source give for `CN(C)c1ccc(CNCCC(Cc2ccccc2)c2ccco2)cc1` (stereo not drawn) here?
Answer: inactive: 0.421%

Question: How did the Potency turn out when `CCCCNS(=O)(=O)c1ccc2nc(SCC(=O)c3ccc(C#N)cc3)[nH]c2c1` was run?
Answer: inconclusive [inhibitor, full curve]

Question: How did the Potency turn out when `c1ccc2c(c1)OCC(c1nnc3n1-c1ccccc1SC3)O2` (stereo not drawn) was run?
Answer: inconclusive [inhibitor, full curve]

Question: For `CCC(C)(C(=O)NC1CCCC1)N(CC1CCCO1)C(=O)c1ccc2c(c1)OCO2` (stereo not drawn), which Potency is on record?
Answer: inconclusive [inhibitor, partial curve]

Question: For `COC(=O)CN1C(C(=O)c2ccccc2)=C(OC(=O)c2ccccc2)c2ccccc2S1(=O)=O`, which “activity change, negative = inhibition” value is on record?
Answer: inactive: -0.454%

Question: With `CCOC(=O)Cn1c(=O)c2c(nc3n2CCCCN3c2ccc(C)cc2)n(C)c1=O` as the compound, how does the Potency read?
Answer: inconclusive [inhibitor, full curve]

Question: `CCOC(=O)Cc1csc(NS(=O)(=O)c2ccccc2)n1` was tested. Which Potency did it give?
Answer: inconclusive [inhibitor, full curve, poor fit]

Question: `Cc1ccc(CC2CC(=O)N(c3ccc(Cl)cn3)C2=O)cc1` (stereo not drawn) was tested. Which Potency did it give?
Answer: inconclusive [inhibitor, full curve, poor fit]

Question: With `COC(=O)c1c(NC(=O)CSc2nnnn2C)sc(C)c1C` as the compound, how does the Potency read?
Answer: inconclusive [inhibitor, full curve, poor fit]

Question: Which Potency does the source give for `CSC(=NC(C)c1ccccc1)NS(=O)(=O)c1cccs1` (stereo not drawn) here?
Answer: inconclusive [inhibitor, full curve, poor fit]

Question: For `COc1ccc(/C=C2\SC(=Nc3ccccc3OC)NC2=O)cc1`, which “activity change, negative = inhibition” value is on record?
Answer: inactive: -4.12%

Question: With `CCNC(=O)NC(=O)C(C)OC(=O)c1ccc(SC)cc1OC` (stereo not drawn) as the compound, how does the Potency read?
Answer: inconclusive [inhibitor, single point]

Question: For `COc1ccc(NC2=C(Cl)C(=O)N(CCc3ccccc3)C2=O)c(OC)c1`, which “activity change, negative = inhibition” value is on record?
Answer: inactive: -2.45%

Question: Which Potency does the source give for `CCc1ccc(S(=O)(=O)Nc2nnc(N)s2)cc1` here?
Answer: inconclusive [inhibitor, full curve, poor fit]

Question: With `CNC(=O)c1ccc(Nc2nc(-c3ccccc3)nc3ccccc23)cc1` as the compound, how does the Potency read?
Answer: inconclusive [inhibitor, partial curve, poor fit]

Question: Which Potency does the source give for `Cc1cc(NC(=O)COC(=O)c2ccc(NS(=O)(=O)c3ccc(C)c(C)c3)cc2)no1` here?
Answer: inconclusive [inhibitor, full curve, poor fit]

Question: `CCc1cc2ccc(C)c(C)c2nc1SCC(=O)NNC(=O)c1ccco1` was tested. Which Potency did it give?
Answer: inconclusive [inhibitor, partial curve, poor fit]

Question: For `COc1ccc(/C(N)=N/OC(=O)Cc2ccc(OC)c(OC)c2)cc1`, which “activity change, negative = inhibition” value is on record?
Answer: inactive: -1.05%

Question: `Cn1nc(C(=O)NNC(=O)c2ccccc2Br)c2ccccc2c1=O` was tested. Which “activity change, negative = inhibition” value did it give?
Answer: inactive: 0%

Question: How did the Potency turn out when `COc1cc(SC)ccc1C(=O)Nc1ccc2ncccc2c1` was run?
Answer: inconclusive [inhibitor, full curve, poor fit]

Question: With `CCCCCCCNC(=O)C1(CC2CC(c3ccccc3)=NO2)CCN(C(=O)c2ccccc2)CC1` (stereo not drawn) as the compound, how does the “activity change, negative = inhibition” value read?
Answer: inactive: -8.51%

Question: `Cc1ccc(OCc2cc(C(=O)N3CCN(CC(=O)NC(C)C)CC3)no2)cn1` was tested. Which Potency did it give?
Answer: inconclusive [inhibitor, partial curve, poor fit]

Question: With `O=C(Nc1ccc(OC(F)(F)F)cc1)N1CCN(c2ccnc3cc(Cl)ccc23)CC1` as the compound, how does the “activity change, negative = inhibition” value read?
Answer: inactive: 2.03%

Question: `CCOC(=O)c1c(NC(=O)CSc2nnc(-c3cccnc3)o2)sc2c1CCC2` was tested. Which Potency did it give?
Answer: inconclusive [inhibitor, partial curve, poor fit]

Question: `CC(=O)Nc1ccc(S(=O)(=O)NC2=NCN(c3cccc([N+](=O)[O-])c3)CN2)cc1` was tested. Which Potency did it give?
Answer: inconclusive [inhibitor, full curve]

Question: `CC1(C)NC(=O)N(CC(=O)N2CCN(c3cccc(C(F)(F)F)c3)CC2)C1=O` was tested. Which Potency did it give?
Answer: inconclusive [inhibitor, partial curve, poor fit]

Question: How did the Potency turn out when `Cc1ccc(OCCNc2ccc(C(F)(F)F)cc2[N+](=O)[O-])cc1` was run?
Answer: inconclusive [inhibitor, full curve]

Question: Which Potency does the source give for `COc1cccc(OCc2nnc(SCC(=O)NCc3ccco3)n2C)c1` here?
Answer: inconclusive [inhibitor, full curve, poor fit]

Question: With `COc1ccc(-c2cn[nH]c2-c2ccc(O)cc2O)cc1OC` as the compound, how does the “activity change, negative = inhibition” value read?
Answer: inactive: -0.483%

Question: For `Clc1ccc(N2N=C(c3cccs3)CC2c2ccco2)cc1` (stereo not drawn), which “activity change, negative = inhibition” value is on record?
Answer: inactive: -14.4%

Question: `O=C(NCCN1CCOCC1)/C(=C/c1ccccc1)NC(=O)c1ccccc1` was tested. Which Potency did it give?
Answer: inconclusive [inhibitor, full curve]

Question: Which “activity change, negative = inhibition” value does the source give for `NC1=NC2(CCCCCC2)n2c(nc3ccccc32)N1` here?
Answer: inactive: -2.74%

Question: `CCOc1cc2[nH]c(=O)n(CCC(=O)NCCc3ccccc3)c(=O)c2cc1OCC` was tested. Which Potency did it give?
Answer: inconclusive [inhibitor, single point]

Question: With `Cc1ccc(NC(=O)NCC(c2ccccc2)N(C)C)cc1` (stereo not drawn) as the compound, how does the “activity change, negative = inhibition” value read?
Answer: inactive: 2.14%

Question: How did the Potency turn out when `CCC(=O)N1CCN(c2ccccc2NC(=O)COc2cccc(C)c2C)CC1` was run?
Answer: inconclusive [inhibitor, partial curve, poor fit]

Question: How did the Potency turn out when `Cc1ccnc2nc(C(=O)NCCc3ccc(F)cc3)nn12` was run?
Answer: inconclusive [inhibitor, full curve, poor fit]

Question: For `COc1ccccc1-n1c(SCC(=O)Nc2cccc(S(N)(=O)=O)c2)nc2ccccc2c1=O`, which Potency is on record?
Answer: inconclusive [inhibitor, single point]

Question: Which Potency does the source give for `CCc1nc(SCC(=O)Nc2ccccc2C(=O)OC)n[nH]1` here?
Answer: inconclusive [inhibitor, full curve]

Question: With `CCOC(=O)N1CCC(NC(=O)C2CCC(CNS(=O)(=O)c3ccc(OC)cc3)CC2)CC1` (stereo not drawn) as the compound, how does the Potency read?
Answer: inconclusive [inhibitor, full curve, poor fit]

Question: How did the “activity change, negative = inhibition” value turn out when `COc1cccc(Nc2nc(CC(C)=O)ns2)c1` was run?
Answer: inactive: -13.8%

Question: How did the Potency turn out when `CC/C(=N\N1CCCCCC1)c1c(O)n(-c2ccccc2C)c(=O)[nH]c1=O` was run?
Answer: inconclusive [inhibitor, single point]

Question: Which “activity change, negative = inhibition” value does the source give for `CNC(=O)c1cnc2sc(N3CCC(C)CC3)nn2c1=O` here?
Answer: inactive: -8.2%

Question: How did the Potency turn out when `CC(OC(=O)c1nn(C)c(=O)c2ccccc12)C(=O)Nc1ccc(S(N)(=O)=O)cc1` (stereo not drawn) was run?
Answer: inconclusive [inhibitor, full curve]

Question: How did the “activity change, negative = inhibition” value turn out when `CC(=O)c1cccc(NS(C)(=O)=O)c1` was run?
Answer: inactive: 3.91%

Question: For `Cc1cccc(C)c1NC(=O)CN(C)C(=O)C1CC(=O)N(c2cccc3ccccc23)C1` (stereo not drawn), which “activity change, negative = inhibition” value is on record?
Answer: inactive: -9.77%

Question: Which Potency does the source give for `Cc1cccc(N(Cc2ccccc2)C(=O)Cc2ccc(S(=O)(=O)N3CCOCC3)s2)c1` here?
Answer: inconclusive [inhibitor, partial curve, poor fit]

Question: With `CNC(=S)N/N=C(\C)c1ccccc1` as the compound, how does the Potency read?
Answer: inconclusive [inhibitor, single point]

Question: For `CCn1c(SCC(=O)Nc2cccc(C(C)=O)c2)nnc1C(C)C`, which “activity change, negative = inhibition” value is on record?
Answer: inactive: -1.7%

Question: With `O=C(NC1CCCCCC1)C1CCCN(S(=O)(=O)c2cnc[nH]2)C1` (stereo not drawn) as the compound, how does the Potency read?
Answer: inconclusive [inhibitor, full curve]

Question: Which “activity change, negative = inhibition” value does the source give for `Cc1ccnc(NC(=O)Cn2c(=O)oc3ccccc32)c1` here?
Answer: inactive: 4.26%

Question: With `O=C(NCCN1C(=O)S/C(=C/c2ccccc2)C1=O)C1CC(=O)N(Cc2ccccc2)C1` (stereo not drawn) as the compound, how does the Potency read?
Answer: inconclusive [inhibitor, full curve, poor fit]

Question: Which Potency does the source give for `O=c1ccc2cc(S(=O)(=O)N3CCN(c4ccccc4F)CC3)ccc2o1` here?
Answer: inconclusive [inhibitor, single point]

Question: Which Potency does the source give for `O=C(OCC(=O)N1CCCC1)c1ccc(S(=O)(=O)N2CCOCC2)cc1` here?
Answer: inconclusive [inhibitor, full curve, poor fit]

Question: For `O=C(CN(Cc1ccc(F)cc1)C(=O)CCC(=O)Nc1nccs1)NCc1ccc(F)cc1`, which Potency is on record?
Answer: inconclusive [inhibitor, full curve, poor fit]

Question: `Cc1ccc2sc(-c3ccc(NC(=O)c4cc(-n5cnnc5)ccc4Cl)cc3)nc2c1` was tested. Which “activity change, negative = inhibition” value did it give?
Answer: inactive: -2.17%

Question: Which Potency does the source give for `COc1ccc(NC(=O)c2cccnc2SC)cc1S(=O)(=O)N1CCCCC1` here?
Answer: inconclusive [inhibitor, full curve, poor fit]

Question: `CC(=O)Nc1ccc(NC(=O)CSc2nnc(-c3cccnc3)o2)cc1` was tested. Which Potency did it give?
Answer: inconclusive [inhibitor, full curve]

Question: Which Potency does the source give for `CCCCCc1ccc(-c2cn(Cc3cccc(OC)c3)nn2)cc1` here?
Answer: inconclusive [inhibitor, full curve, poor fit]

Question: How did the Potency turn out when `CCOC(=O)c1cc(C)n(Cc2ccccc2)c1C` was run?
Answer: inconclusive [inhibitor, full curve, poor fit]
